Laboratory results published in PubChem BioAssay AID485344 (National Center for Advancing Translational Sciences (NCATS), 2010).
About 6,900 (2%) of roughly 340,000 compounds were called active. Rule as the data show it: active = inhibition above about 30%; inactive = below that, where a call was filed. The entries are a selection whose mix differs from that of the whole data set. Entries without a call were filed so in the source.

Each compound was assayed against D(2) dopamine receptor (Homo sapiens) (UniProt P14416) (assay: HTS Assay for Allosteric Antagonists of the Human D2 Dopamine Receptor: Primary Screen for Antagonists). Settings: HEK293 TREx D2 cells, calcium flux, dopamine EC80; at 10 µM; stronger effect = higher value.
Method in brief: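 Calcium flux kinetic readout in an inducible HEK293 TREx D2 line plated overnight at 30 C. After 180 s compound exposure, an EC80 dopamine challenge follows with another 180 s kinetic read to detect antagonism.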
Also: 0% is about no effect.

Chain of UniProt P14416 (P14416 whole entry, looked up): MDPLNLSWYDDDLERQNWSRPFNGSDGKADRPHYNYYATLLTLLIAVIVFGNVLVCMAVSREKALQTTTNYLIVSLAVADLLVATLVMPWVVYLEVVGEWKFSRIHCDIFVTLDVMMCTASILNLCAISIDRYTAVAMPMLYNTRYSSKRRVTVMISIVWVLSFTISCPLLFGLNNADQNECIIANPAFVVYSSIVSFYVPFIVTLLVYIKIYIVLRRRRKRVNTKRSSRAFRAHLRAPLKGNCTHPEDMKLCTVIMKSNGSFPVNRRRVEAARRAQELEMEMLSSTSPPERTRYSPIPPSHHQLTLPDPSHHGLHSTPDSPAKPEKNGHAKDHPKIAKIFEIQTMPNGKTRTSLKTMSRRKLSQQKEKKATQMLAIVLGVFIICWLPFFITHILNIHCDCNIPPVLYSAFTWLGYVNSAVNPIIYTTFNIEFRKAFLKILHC

Structure (SMILES)	inhibition
COc1cccc(NC(=O)Cn2c(=O)n(-c3ccc(C)cc3)c(=O)c3ccccc32)c1	16.7%
Cc1ccc(-c2nn(CCC(=O)Nc3ccc(OC(F)(F)F)cc3)c(=O)c3ccccc23)cc1	3.28%
Cc1ccc(NC(=O)C2CCN(C(=O)c3sc4nc[nH]c(=O)c4c3C)CC2)cc1F	-9.84%
COc1ccccc1C(=O)Nc1ccccc1OCc1cc(=O)n2cc(C)sc2n1	0.227%
CCOc1cccc(C(=O)N(Cc2ccc(C(C)C)cc2)C2CCS(=O)(=O)C2)c1 (stereo unspecified)	0.587%
CCc1ccc(N2CC(C(=O)Nc3nc4ccc(S(C)(=O)=O)cc4s3)CC2=O)cc1 (stereo unspecified)	active: 36.6%
CCCSc1nnc(NC(=O)c2cc(=O)c3ccccc3o2)s1	9.02%
CCOC(=O)N1CCc2c(sc3c2c(=O)n(CCc2ccccc2)c(=O)n3CC(=O)Nc2ccccc2C)C1	-6.96%
COc1ccc(NC(=O)C2CCCN(S(=O)(=O)c3ccc4[nH]c(=O)ccc4c3)C2)cc1Cl (stereo unspecified)	-13.6%
COC(=O)c1cc2sccc2n1Cc1c(C)cc(C)cc1C	-4.9%
CCCN1CCN(CCCNC(=O)c2cc3c(s2)-c2c(C)cccc2OC3)CC1	9.27%
O=C(c1cccc(Cl)c1)N(Cc1cccc(F)c1)C1CCS(=O)(=O)C1 (stereo unspecified)	17.9%
CCC(C(=O)NCc1ccccc1Cl)n1c(=O)c2cccn2c2ccccc21 (stereo unspecified)	-8.97%
Cc1ccc2c(c1)N(C(=O)c1ccc(F)cc1)C(C)(C)CC2(C)c1ccccc1 (stereo unspecified)	3.85%
CCN(CC)CCN(C(=O)c1ccc2c(c1)CCCC2)c1nc2c(C)cccc2s1	active: 60.1%
COC(=O)c1cc(OC)c(OC)cc1NC(=O)c1ccc2c(c1)CCN2S(C)(=O)=O	9.14%
O=C(NCc1ccccc1)c1c2c(nc3ccccc13)C(=O)N(C1CCCCC1)C2	1.05%
COc1ccc(-c2ccc(=O)n(CC(=O)Nc3ccc(Br)cc3F)n2)cc1	-5.75%
CCS(=O)(=O)c1nc(S(=O)(=O)c2ccc(Cl)cc2)c(NCc2ccc(Cl)cc2)s1	-1.88%
CCOC(=O)c1[nH]c(C)c(CCC(=O)N2CCN(c3ccc(Cl)cc3)CC2)c1C	-17.8%
O=C(O)c1ccc(Nc2ncnc3scc(-c4ccccc4)c23)cc1	7.48%
Cn1c(=O)c2c(-c3ccccc3)n(-c3cccc(C#N)c3)cc2n(C)c1=O	-7.51%
CCOC(=O)c1sc(NC(NC(=O)c2ccco2)(C(=O)OC)C(F)(F)F)nc1C (stereo unspecified)	active: 33.8%
CCc1ccc2nc(N(Cc3cccnc3)C(=O)Cc3ccccc3)sc2c1	-7.72%

Structure (SMILES)	inhibition
O=C(C#Cc1ccccc1)Nc1ccc(F)cc1	active: 46.7%
COc1ccc(Cc2c(C)nn(-c3nc(C)c(C(=O)Nc4cccc(C(C)=O)c4)s3)c2C)cc1	-8.07%
CC(C)c1nn2c(=O)cc(COC(=O)c3cccc(NC(=O)CCc4ccccc4)c3)nc2s1	-3.6%
O=C(CSc1oc(-c2ccc(F)cc2)nc1S(=O)(=O)c1ccccc1)c1ccc(Cl)cc1	-4.76%
CCN(Cc1ccccc1)C(=O)Cn1c(=O)cc(C)c2c(C)nn(-c3cccc(F)c3)c21	7.75%
CCOc1ccc(-c2nnc(SCC(=O)NC3CCCCC3)nc2-c2ccc(OCC)c(OC)c2)cc1OC	26%
COc1ccc(CNC(=O)CCn2c(=O)c3cccn3c3ccc(F)cc32)cc1OC	17.2%
CC(C)c1ccc(NC(=O)C2CCC(CNS(=O)(=O)c3ccc4c(c3)CCCC(=O)N4)CC2)cc1 (stereo unspecified)	-0.805%
CCc1ccc2occ(CC(=O)Nc3nnc(SC)s3)c2c1	-8.59%
CC(C)c1ccc(NC(=O)[C@H]2O[C@@H]3OC(C)(C)O[C@@H]3[C@H]3OC(C)(C)O[C@H]32)cc1	6.2%
Cc1c(Cc2ccccc2)c(=O)oc2c(O)c(O)ccc12	active: 33.8%
Cc1nn(CC(=O)N2CCN(c3ccccc3F)CC2)c(=O)c2cccn12	-4.33%
CCN(CC)c1ccc2nc3c(=O)n(C)c(=O)n(C)c3nc2c1	23.2%
COc1ccc(-n2ccnc(NCCc3ccc(S(N)(=O)=O)cc3)c2=O)cc1Cl	-3.11%
CC(C)c1ccc(NC(=O)c2cc(S(=O)(=O)NCCc3ccccc3)ccc2F)cc1	-10.6%
Cc1cccn2c(=O)cc(COc3cccc(NC(=O)Nc4cccc(Cl)c4)c3)nc12	-16.1%
O=C1Cc2cc(S(=O)(=O)Nc3cccc(C(F)(F)F)c3)cc3c2N1CCC3	7.34%
Cc1sc(NC(=O)c2cccs2)c(C(=O)OC(C)C)c1C	active: 31.3%
COc1ccc(C(C)C)cc1S(=O)(=O)NCCc1c(C)[nH]c2c(Cl)cccc12	9.75%
C[C@H](NC(=O)OC(C)(C)C)c1nnc(SCc2ccc(Cl)cc2Cl)o1	-7.97%
CCOC(=O)C(Cc1ccccc1)NC(=O)Cn1nnc(-c2ccc(C)cc2)n1 (stereo unspecified)	8.13%
CN(C)S(=O)(=O)N(CC(=O)NCCSCc1ccc(Cl)cc1Cl)c1ccccc1	5.98%
CSc1ccc(CCNC(=O)C2CCCN(S(=O)(=O)N(C)c3ccc(F)cc3)C2)cc1 (stereo unspecified)	-5.31%
COc1ccccc1NC(=O)Cn1c(=O)n(C)c(=O)c2sc3c(c21)COC(C)(C)C3	active: 31.9%

Structure (SMILES)	inhibition
COc1ccc(NC(=O)CN2C(=O)C(c3ccccc3)=NC23CCC(C)CC3)cc1Cl (stereo unspecified)	2.38%
COc1ccccc1-c1c(C)[nH]n2c(=O)c(Cc3ccccc3)c(C)nc12	active: 53.7%
CCOCCCNC(=O)CN1C(=O)CCn2nc(-c3cccn3C)cc21	14.1%
COc1cc2[nH]c(=O)n(CCCC(=O)N(C)Cc3ccccc3)c(=O)c2cc1OC	-4.72%
CCc1ccccc1NC(=O)Cn1nc(C)c2nn(-c3ccc(Cl)cc3)c(C)c2c1=O	-21.1%
Oc1ccc(C2CNCc3sccc32)cc1O (stereo unspecified)	active: 95.8%
CCOC(=O)c1ccc(N2C(=O)c3n[nH]c(C)c3C2c2ccc(CC)cc2)cc1 (stereo unspecified)	5.35%
COC(=O)c1cc2occc2n1Cc1nc(-c2ccc(Cl)cc2)oc1C	1.56%
Cc1ccc(NC(=O)Cn2cc(S(=O)(=O)Cc3ccccc3)c3ccccc32)cc1C	5.04%
CCc1ccc(S(=O)(=O)c2cn(C)c3ccc(C)cc3c2=O)cc1	-7.1%
CCCCN(CC)CCCNC(=O)c1sc2nc3n(c(=O)c2c1C)CCCCC3	-5.52%
Cc1ccc(CCNC(=O)CCCn2c(=O)c3cccn3c3ccc(F)cc32)cc1	8.49%
O=C(CN1C(=O)COc2ccc(Cl)cc21)Nc1cccc(C(=O)O)c1	-10.6%
CCn1c2ccccc2c2cc(CNCc3ccc(OC)cc3OC)ccc21	active: 35%
COCCNC(=O)c1cc(-c2cccc(Cl)c2)on1	-7.57%
CC1CCc2nc3ncn(Cc4cccc(F)c4)c(=O)c3cc2C1 (stereo unspecified)	10.9%
COc1cccc(C(=O)NNC(=S)NC2CCCCC2)c1	active: 30.7%
Cc1ccc(NC(=O)Cn2c(=O)n(CC(=O)NCCc3ccccc3)c(=O)c3ccccc32)cc1	4.46%
CCc1ccccc1NC(=O)Cn1nnc(C(=O)NCc2cccc(OC)c2)c1N	3.37%
COc1ccc(CNC(=O)CCc2c(C)nc3c4cccnc4nn3c2C)cc1	10.3%
COc1ccc(C)cc1-n1c(SCC(=O)NCc2ccco2)nc2c([nH]c3ccccc32)c1=O	-0.26%
CCCCN(CC)CCCNC(=O)c1nn(-c2ccc(OC)cc2)c(=O)c2c1c1ccccc1n2C	15.8%
O=C(Nc1ncc(Cc2ccccc2Cl)s1)c1ccc2c(c1)CC(c1ccccc1)OC2=O (stereo unspecified)	-6.72%
CNC(=O)C1CCC(Cn2c(=O)c3sccc3n(CC(=O)Nc3ccccc3)c2=O)CC1 (stereo unspecified)	5.44%

Structure (SMILES)	inhibition
Cc1ccc(NC(=O)c2nc(S(C)(=O)=O)ncc2N(Cc2ccco2)Cc2ccco2)cc1	6.14%
Cc1ccc(OCCSc2nc3ccccc3n2CCC(=O)O)cc1	-23.4%
Cc1ccc(S(=O)(=O)c2nnn3c2nc(NC2CCCCC2)c2sccc23)cc1C	10.7%
CN(Cc1ccccc1)c1nc2c(S(=O)(=O)c3ccccc3)nnn2c2ccsc12	-2.42%
Cc1c(C(=O)Nc2ccccc2F)sc2nc3n(c(=O)c12)CCC3	18%
COc1ccc(NC(=O)CN2C(=O)C(=O)c3ccccc32)c(OC)c1	-6.86%
Cc1cc(C)cc(OCC(=O)N(Cc2ccco2)Cc2ccccc2Cl)c1	-1.16%
COc1ccccc1C(=O)N1CCC(N2CCN(c3ccccc3OC)CC2)CC1	active: 37.7%
CCOc1ccccc1CNC(=O)CN1C(=O)c2cccnc2Oc2ccc(C)cc21	13.3%
O=C(Nc1ccc(Br)cc1)c1cc(S(=O)(=O)N2CCc3ccccc32)ccc1F	-10.4%
CCn1c(=O)c2sccc2n2c(CCCC(=O)Nc3ccc(Oc4ccccc4)cc3)nnc12	-0.115%
COc1ccc(OC)c(NC(=O)N2CCC3(CC2)Oc2ccccc2C(=O)N3Cc2ccccc2F)c1	-1.15%
CCCCN(C)C(=O)c1ccc2c(c1)NC(=O)C(CC(C)C)N2 (stereo unspecified)	22.5%
COc1ccc(-c2noc(CC(=O)N(C)c3cc(Cl)c(OC)cc3OC)n2)cc1	-6.91%
CCN1C(=O)C2(c3ccccc31)c1c(oc3ccccc3c1=O)C(=O)N2CCOC (stereo unspecified)	-6.53%
COc1ccc(N2CCN(C(=O)c3cn(C)c4ccc(S(=O)(=O)N5CCOCC5)cc4c3=O)CC2)cc1	2.77%
Cc1cc(Nc2cccc(Cl)c2)nc2ccc(NC(=O)Cc3c(F)cccc3Cl)cc12	7.46%
CCC1Oc2ccccc2N(CC(=O)NCc2ccccc2)C1=O (stereo unspecified)	-23.5%
Cn1c(=O)c(=O)n(C)c2cc(N3CCCC3)c(NC(=O)c3ccccc3Cl)cc21	5.54%
COc1ccc2nc(N(Cc3cccnc3)C(=O)c3ccc(Cl)cc3)sc2c1	-13.7%
CCOc1ccccc1CNC(=O)CN1C(=O)c2cccnc2Oc2ccc(Cl)cc21	-14.7%
COc1ccc(S(=O)(=O)N2CCCCC2)cc1C(=O)NC1CCS(=O)(=O)C1 (stereo unspecified)	-0.47%
O=C(Nc1ccccc1)c1ccc(Cl)c(S(=O)(=O)Nc2ccccc2)c1	4.56%
Cc1ccc(C(=O)c2cn(Cc3ccccc3)c3c(F)cc(F)cc3c2=O)cc1	-4.34%
